Measurements taken from the supplement of paper PMC4967469.
pIC50: −log10 of the molar value. By IC50 is meant the dose at which the fit gives 50% viability; fits outside the tested doses are given as limits. AUC, from the same fit, is the share of area under the viability curve across the 256-fold dose range; values near 1 show little effect. For part of these data: An inferred top dose was derived from the fitted curves, not read from the paper. For part of these data: An entry number marks a drug with two screens in the source, which often give different values.

Tests used:
Assay in all cases: Viability of human cancer cell lines after 72 h of drug (GDSC screen)
SNX-2112 = compound: CC1(C)CC(=O)c2c(C(F)(F)F)nn(-c3ccc(C(N)=O)c(N[C@H]4CC[C@H](O)CC4)c3)c2C1 [SNX-2112]; conditions: top dose 2.56 µM
Description: (§1)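 Human cancer cell lines in 384-well plates, medium with 10% serum, drug for 72 h over a 256-fold dose range (nine 2-fold or five 4-fold steps up to the top dose). Adherent lines were fixed and stained with the nucleic acid dye Syto60, suspension lines read with resazurin; signal relative to control wells, capped at 0 and 100%. One two-parameter sigmoid per drug and line, fitted in a mixed model over all curves with the slope shared within a line.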

PF-562271 = compound: CN(c1ncccc1CNc1nc(Nc2ccc3c(c2)CC(=O)N3)ncc1C(F)(F)F)S(C)(=O)=O [PF-562271]; conditions: top dose 2.56 µM; top dose inferred
Description: as §1

Afatinib = compound: CN(C)C/C=C/C(=O)Nc1cc2c(Nc3ccc(F)c(Cl)c3)ncnc2cc1O[C@H]1CCOC1 [Afatinib]
Description: as §1

XMD13-2 = compound: O=C(NC1CC1)c1cccc(-c2ccc3c(NC(=O)C4CC4)n[nH]c3c2)c1 [XMD13-2]; conditions: top dose 10.24 µM; top dose inferred
Description: as §1

Vinblastine = compound: CC[C@]1(O)C[C@@H]2CN(CCc3c([nH]c4ccccc34)[C@@](C(=O)OC)(c3cc4c(cc3OC)N(C)[C@H]3[C@@](O)(C(=O)OC)[C@H](OC(C)=O)[C@]5(CC)C=CCN6CC[C@]43[C@@H]65)C2)C1 [Vinblastine]; conditions: top dose 0.1 µM; top dose inferred
Description: as §1

[1] = top dose 0.5 µM, screen: GDSC drug entry 1032
[2] = top dose 10 µM, screen: GDSC drug entry 1377, top dose inferred

Cell Line | AUC (SNX-2112) | pIC50 (SNX-2112) | AUC (PF-562271) | pIC50 (PF-562271) | AUC (Afatinib; [1]) | pIC50 (Afatinib; [1]) | AUC (Afatinib; [2]) | pIC50 (Afatinib; [2]) | AUC (XMD13-2) | pIC50 (XMD13-2) | AUC (Vinblastine) | pIC50 (Vinblastine)
RCC10RGB (kidney, adherent) | 0.905 | < 5.59 | 0.791 | < 5.59 | 0.927 | < 6.30 | 0.782 | 5.00 | 0.967 | < 4.99 | 0.919 | < 7.00
RCM-1 (large intestine, adherent) | 0.852 | < 5.59 | 0.943 | < 5.59 | 0.902 | < 6.30 | 0.913 | < 5.00 | 0.983 | < 4.99 | 0.951 | < 7.00
REH (B-cell leukaemia, suspension) | 0.215 | 7.61 | 0.874 | 5.63 | 0.986 | < 6.30 | 0.931 | < 5.00 | 0.8 | 5.32 | 0.459 | 8.31
RERF-LC-KJ (lung adenocarcinoma, adherent) | 0.914 | < 5.59 | 0.973 | < 5.59 | 0.927 | < 6.30 | 0.974 | < 5.00 | 0.972 | < 4.99 | 0.535 | 8.11
RERF-LC-MS (lung adenocarcinoma, adherent) | 0.609 | 6.49 | 0.927 | < 5.59 | 0.975 | < 6.30 | 0.985 | < 5.00 | 0.983 | < 4.99 | 0.658 | 7.76
RERF-LC-Sq1 (lung squamous cell carcinoma, adherent) | 0.866 | < 5.59 | 0.979 | < 5.59 | 0.697 | 6.84 | 0.601 | 5.87 | 0.948 | < 4.99 | 0.778 | 7.21
RF-48 (stomach, adherent) | 0.307 | 7.37 | 0.926 | < 5.59 | 0.981 | < 6.30 | 0.983 | < 5.00 | 0.87 | < 4.99 | 0.756 | 7.42
RH-1 (rhabdomyosarcoma, adherent) | 0.252 | 7.44 | 0.934 | < 5.59 | 0.991 | < 6.30 | 0.971 | < 5.00 | 0.882 | 5.11 | 0.436 | 8.36
RH-41 (rhabdomyosarcoma, adherent) | 0.855 | 5.82 | 0.979 | < 5.59 | 0.972 | < 6.30 | 0.976 | < 5.00 | 0.923 | < 4.99 | 0.427 | 8.39
RKN (ovary, adherent) | 0.697 | 6.23 | 0.96 | < 5.59 | 0.975 | < 6.30 | 0.972 | < 5.00 | 0.917 | < 4.99 | 0.496 | 8.22
RKO (large intestine, adherent) | 0.258 | 7.46 | 0.891 | < 5.59 | 0.977 | < 6.30 | 0.986 | < 5.00 | 0.857 | 5.13 | 0.495 | 8.22
RL95-2 (endometrium, adherent) | 0.595 | 6.54 | 0.9 | < 5.59 | 0.803 | 6.61 | 0.892 | < 5.00 | 0.978 | < 4.99 | 0.603 | 7.92
RL (B-cell lymphoma, suspension) | 0.311 | 7.30 | 0.99 | < 5.59 | 0.99 | < 6.30 | 0.952 | < 5.00 | 0.905 | < 4.99 | 0.371 | 8.55
RMG-I (ovary, adherent) | 0.842 | 5.65 | 0.957 | < 5.59 | 0.94 | < 6.30 | 0.336 | 6.70 | 0.96 | < 4.99 | 0.859 | < 7.00
RO82-W-1 (thyroid, adherent) | 0.928 | < 5.59 | 0.922 | < 5.59 | 0.981 | < 6.30 | 0.954 | < 5.00 | 0.974 | < 4.99 | 0.469 | 8.30
ROS-50 (B-cell leukaemia, suspension) | 0.851 | < 5.59 | 0.983 | < 5.59 | 0.984 | < 6.30 | 0.982 | < 5.00 | 0.926 | < 4.99 | 0.962 | < 7.00
RPMI-2650 (head and neck, adherent) | 0.508 | 6.77 | 0.889 | < 5.59 | 0.962 | < 6.30 | 0.962 | < 5.00 | 0.956 | < 4.99 | 0.709 | 7.59
RPMI-6666 (Hodgkin lymphoma, suspension) | 0.225 | 7.68 | 0.92 | < 5.59 | 0.976 | < 6.30 | 0.972 | < 5.00 | 0.77 | 5.33 | 0.655 | 7.74
RPMI-7951 (melanoma, adherent) | 0.244 | 7.52 | 0.895 | < 5.59 | 0.967 | < 6.30 | 0.984 | < 5.00 | 0.969 | < 4.99 | 0.384 | 8.52
RPMI-8226 (myeloma, suspension) | 0.38 | 7.10 | 0.979 | < 5.59 | 0.962 | < 6.30 | 0.981 | < 5.00 | 0.918 | < 4.99 | 0.309 | 8.70
RPMI-8402 (T-cell lymphoblastic leukaemia, suspension) | 0.28 | 7.37 | 0.909 | < 5.59 | 0.99 | < 6.30 | 0.95 | < 5.00 | 0.736 | 5.58 | 0.522 | 8.15
